Measurements reported in PubChem BioAssay (NCATS).
Inconclusive means that the source gave no clear call. Such entries were picked first, then a sample of the others. For some of these results: Where the call is inconclusive, the potency comes from a doubtful curve fit. The source made the active and inactive calls. The call rests on the fitted dose curve; in most records, active means well fitted curve in the direction sought with a large enough effect; inconclusive means small, poorly fitted or top-dose-only effect, or another doubt; inactive means no such curve, though single readings can be large; an effect the other way counts as inactive or inconclusive.

Tests used:
[1] = P-glycoprotein substrates identified in KB-8-5-11 adenocarcinoma cell line, qHTS therapeutic library screen (AID 1346987); further: nearly all actives have a fitted effect of over 65% in size; further: potency means the concentration at half of the fitted maximal effect; on activity change, negative = cytotoxicity: on the % scale 0 is the no-effect control and ±100 the full control effect
In short: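 Steps: plate 500 KB-8-5-11 cells/well in DMEM + 10% FCS (colchicine removed); pin compounds in dose-response; incubate 72 h, 37 degree C, 5% CO2; add CellTiter-Glo, 5 min; read luminescence.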

[2] = test system: Zika virus NS2B-NS3 protease (unlinked complex); assay: Primary screen GU Rhodamine qHTS for Zika virus inhibitors: Unlinked NS2B-NS3 protease assay (AID 1347159); further: potency means the concentration at half of the fitted maximal effect; nearly all actives have a fitted effect of over 60% in size
In short: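 Compounds, tested up to 114 microM, were incubated for 15 minutes with 25 nM unlinked NS2B-NS3 protease at pH 8.0. Cleavage of 1.5 microM Rhodamine110 substrate was then followed by fluorescence for 15 minutes.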

[3] = Primary qHTS for inhibitors of nuclear receptor binding SET domain protein 2 (NSD2) in an RCH-ACV wild type WT cells (2C) (AID 1645877); details: activity change, negative = cell killing: at 44.9 µM (top of the series) unless noted; further: nearly all actives have a fitted effect of over 70% in size; further: potency means the concentration at half of the fitted maximal effect; on activity change, negative = cell killing: on the % scale 0 is the no-effect control and ±100 the full control effect
[4] = Primary redox qHTS assay for identification of artifact compounds. (AID 1845223); details: Amplex Red/HRP redox cycling with DTT, fluorescence; redox activity (% of DA3003): at 53.8 µM (top of the series); further: potency means the concentration at half of the fitted maximal effect
In short: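 Amplex Red (25 uM) and HRP (250 mU/mL) in HBSS, with compounds for 15 min, then 250 uM DTT for 30 min, room temperature, dark. Fluorescence 525/598 nm read; normalized to DMSO and 10 uM DA3003; Hill fit.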

[5] = test system: NIH3T3; assay: Cytotoxic Profiling of Annotated Libraries Using Quantitative High-Throughput Screening (AID 1296008); details: Five cell lines viability, CellTiter-Glo ATP luminescence, 48-72 h; max response: active compounds read low; further: nearly all actives have a fitted effect of over 60% in size; further: potency means the concentration at half of the fitted maximal effect
In short: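 Compounds were pin-transferred onto cells and incubated 48 or 72 hr at 37 degree Celsius, 95% humidity. CellTiter-Glo was added, plates sat 10 min at room temperature, then ATP-coupled luminescence was imaged as the viability read-out.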

[6] = test system: Hek293T; assay: Primary qHTS to identify gynecologic anti-cancer compounds using libraries of approved drugs and bioactive compounds (AID 1345084); details: Gynecologic cancer cell panel viability, ATPlite luminescence, 48 h, control line for the selectivity index; activity change, negative = cytotoxicity: at 57.5 µM (top of the series) unless noted; further: nearly all actives have a fitted effect of over 55% in size; further: potency means the concentration at half of the fitted maximal effect; on activity change, negative = cytotoxicity: on the % scale 0 is the no-effect control and ±100 the full control effect
In short: (§1)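 In this quantitative HTS, cell killing is estimated from loss of ATP-dependent luciferase light. Cells see five compound concentrations over a 48 h exposure.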

[7] = test system: SKOV3; assay: as above; details: Gynecologic cancer cell panel viability, ATPlite luminescence, 48 h; series mostly up to 57.5 µM
In short: as §1

[8] = test system: Tov-21-G; assay: as above; details: Gynecologic cancer cell panel viability, ATPlite luminescence, 48 h; activity change, negative = cytotoxicity: at 57.5 µM (top of the series) unless noted
In short: as §1

[9] = test system: Zika virus NS2B-NS3 protease (linked construct); assay: Primary screen NINDS Rhodamine qHTS for Zika virus inhibitors (AID 1347160); details: activity change, negative = inhibition: at 57.1 µM (top of the series) unless noted; further: potency means the concentration at half of the fitted maximal effect; nearly all actives have a fitted effect of over 55% in size
In short: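 Percent inhibition, normalized to uninhibited and enzyme-free controls, is fitted to a 4-parameter Hill equation. Fluorescence change comes from a 15-min cleavage of 1.5 microM bis-peptide Rhodamine110 substrate by 25 nM linked NS2B-NS3 at room temperature.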

[10] = Primary qHTS for inhibitors of nuclear receptor binding SET domain protein 2 (NSD2) in an isogenic RCH-ACV NSD2 p.E1099K mutant (9B) (AID 1645876); further: nearly all actives have a fitted effect of over 70% in size; further: potency means the concentration at half of the fitted maximal effect
[11] = test system: OV90; assay: Primary qHTS to identify gynecologic anti-cancer compounds using libraries of approved drugs and bioactive compounds (AID 1345084); details: Gynecologic cancer cell panel viability, ATPlite luminescence, 48 h; series mostly up to 57.5 µM; further: nearly all actives have a fitted effect of over 55% in size; further: potency means the concentration at half of the fitted maximal effect; on activity change, negative = cytotoxicity: on the % scale 0 is the no-effect control and ±100 the full control effect
In short: as §1

[12] = qHTS of pediatric cancer cell lines to identify multiple opportunities for drug repurposing: Primary screen for BT-37 cells (AID 1347094);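 further: plate controls were DMSO for no effect and bortezomib for full effect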
In short: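 Luminescence from CellTiter-Glo served as readout of metabolically active cells after 48 h compound exposure. Titrations: MIPE 11-point, from 0.78 nM; NPC 8-point, from 0.59 nM (final). Concentration-response curves came straight from the primary screen.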

[13] = test system: CP247; assay: qHTS profiling for inhibitors of Plasmodium falciparum proliferation (AID 504749); further: nearly all actives have a fitted effect of over 60% in size; further: potency means the concentration at half of the fitted maximal effect; details: P. falciparum in erythrocytes, SYBR Green DNA, 72 h; series mostly up to 28.7 µM
In short: (§2)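 Parasite proliferation within erythrocytes, 72 h exposure. Endpoint: SYBR Green I fluorescence after overnight lysis at room temperature. Controls: 0.29 uM artemisinin, DMSO.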

[14] = test system: CP260; assay: as above; details: P. falciparum in erythrocytes, SYBR Green DNA, 72 h; series mostly up to 28.7 µM
In short: as §2

[15] = test system: PA-1; assay: Primary qHTS to identify gynecologic anti-cancer compounds using libraries of approved drugs and bioactive compounds (AID 1345084); details: Gynecologic cancer cell panel viability, ATPlite luminescence, 48 h; series mostly up to 57.5 µM; further: nearly all actives have a fitted effect of over 55% in size; further: potency means the concentration at half of the fitted maximal effect
In short: as §1

[16] = Drug repurposing screens with cells derived from glioblastoma tumor samples (AID 1345199); details: GBM patient neurospheres viability, ATP luminescence, 48 h; Potency: tumour line A unless noted; activity, negative = cell killing: at 46 µM (top of the series), tumour line A unless noted; further: nearly all actives have a fitted effect of over 40% in size; further: potency means the concentration at half of the fitted maximal effect
In short: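 Four patient lines of CD133+ GBM neurospheres were screened at several concentrations; hits were retested in those lines plus three slower-growing GBM lines, using 48-hour treatment and ATP-based viability.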

[17] = test system: DIV14; assay: qHTS profiling for inhibitors of Plasmodium falciparum proliferation (AID 504749); further: nearly all actives have a fitted effect of over 60% in size; further: potency means the concentration at half of the fitted maximal effect; details: P. falciparum in erythrocytes, SYBR Green DNA, 72 h; series mostly up to 28.7 µM
In short: as §2

[18] = Primary fluorescence-based thiol-reactive (MSTI) qHTS assay for identification of artifact compounds. (AID 1845221);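 further: potency means the concentration at half of the fitted maximal effect; thiol-reactive compounds lower the probe fluorescence signal; nearly all actives have a fitted effect of over 65% in size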
In short: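 One-hour, room-temperature, dark incubation of compound with 4 uM MSTI in PBS (pH 7.4, 2% DMSO) precedes a fluorescence read at 525 nm excitation, 598 nm emission; Hill-equation fitting yields concentration-response values.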
Tags describe the fitted curve by direction and shape.

## CC1(C)CC[C@]2(C(=O)O)CC[C@]3(C)C(=CCC4[C@@]5(C)CC[C@H](O[C@@H]6O[C@H](C(=O)O)[C@@H](O)[C@H](O[C@@H]7O[C@H](CO)[C@H](O)[C@H](O)[C@H]7O)[C@H]6O[C@@H]6O[C@H](CO)[C@@H](O)[C@H](O)[C@H]6O)C(C)(C)C5CC[C@]43C)[C@@H]2C1 (some centres undefined)
[1]
  activity change, negative = cytotoxicity: inactive: 3.75% [at 5.11 µM]
[2]
  Potency: active: 5.62 µM
[3]
  activity change, negative = cell killing: inconclusive: -30.2% [inhibitor] [at 4.96 µM]
[4]
  Potency: inconclusive: 0.649 µM [activator, full curve, poor fit]
[5]
  outcome: inactive
[6]
  activity change, negative = cytotoxicity: inactive: -0.735% [at 6.55 µM]
[7]
  Potency: inconclusive: 5.01 µM [rising, single point]
[8]
  activity change, negative = cytotoxicity: inactive: -6.57% [at 6.55 µM]

## C[C@@H](Nc1cc(NS(=O)(=O)N2CCC2)nc(SCc2cccc(F)c2F)n1)[C@@H](O)CO
[5]
  outcome: inactive
[7]
  Potency: inconclusive: 1.26 µM [rising, full curve, poor fit]

## C[C@@H]1O[C@@H](OC[C@H]2O[C@@H](OCc3ccccc3)[C@H](O)[C@@H](O)[C@@H]2O)[C@H](O)[C@H](O)[C@H]1O
[2]
  Potency: inconclusive: 28.2 µM [inhibitor, partial curve, poor fit]
[9]
  Potency: inconclusive: 11.2 µM [inhibitor, single point]
[10]
  Potency: inactive
[5]
  max response: inactive: 0.0365%
[11]
  Potency: inactive

## CCN(CC)CCc1nc(-c2ccccc2)no1
[12]
  Potency: inactive
[3]
  Potency: inactive
[13]
  Potency: inactive
[14]
  Potency: inconclusive: 10 µM [inhibitor, single point]
[5]
  max response: inactive: 1.98%
[15]
  Potency: inactive
[16]
  Potency: inactive

## O=C1CCc2cc(OCCCCc3nnnn3C3CCCCC3)ccc2N1
[1]
  Potency: inconclusive: 29.1 µM [inhibitor, single point]
[10]
  Potency: inconclusive: 23.7 µM [inhibitor, single point]
[3]
  Potency: inconclusive: 16.6 µM [inhibitor, partial curve, poor fit]
[13]
  Potency: inconclusive: 3.98 µM [inhibitor, single point]
[17]
  Potency: inactive
[5]
  Potency: inconclusive: 33.5 µM [inhibitor, partial curve, poor fit]
[11]
  Potency: inconclusive: 39.8 µM [cytotoxic, single point]
[16]
  Potency: inconclusive: 10 µM [inhibitor, partial curve]

## Fc1cccc(CN(C2=NCCN2)c2c(Cl)cccc2Cl)c1
[5]
  outcome: inactive
[7]
  Potency: inactive

## C/C1=C\CC(C)(C)/C=C/C/C(C(=O)O)=C/CC1
[1]
  Potency: inactive
[9]
  Potency: inconclusive: 31.6 µM [inhibitor, single point]
[5]
  outcome: inactive
[11]
  Potency: inactive

## C=C1C(O)C(OC(=O)c2ccccc2)C2C(C)(C(=O)O)CCCC2(C)C1CC/C(C)=C\CO (centres undefined)
[2]
  Potency: inconclusive: 8.91 µM [inhibitor, full curve]
[9]
  Potency: inconclusive: 12.6 µM [inhibitor, single point]
[5]
  outcome: inactive
[11]
  Potency: inactive
[7]
  Potency: inconclusive: 7.94 µM [rising, partial curve, poor fit]

## O=C(/C=C/c1ccc(O)cc1)OC1[C@H](O)CC(O)(C(=O)O)C[C@H]1O (some centres undefined)
[1]
  Potency: inactive
[18]
  Potency: inconclusive: 16.5 µM [inhibitor, partial curve, poor fit]
[5]
  max response: inactive: -9.08%
[11]
  Potency: inactive
[7]
  Potency: inactive

## O[C@@H]1CO[C@H]2[C@@H]1OC[C@@H]2O
[12]
  Potency: inactive
[14]
  Potency: inactive
[5]
  max response: inactive: 4.37%
[6]
  Potency: inactive
[16]
  Potency: inconclusive: 31.6 µM [inhibitor, partial curve, poor fit]

## COc1c(C(CC(C)C)OC(C)=O)ccc(Oc2c(O)cc(C)cc2/C=C/C(C)=O)c1C(=O)O (centres undefined)
[2]
  Potency: active: 7.08 µM
[9]
  Potency: active: 11.2 µM
[3]
  Potency: inconclusive: 15.9 µM [inhibitor, single point]
[18]
  Potency: active: 4.62 µM
[4]
  Potency: inconclusive: 5.19 µM [activator, partial curve, poor fit]
[5]
  max response: inactive: -18.3%
[6]
  Potency: inactive
[15]
  Potency: inactive

## CCc1nnc(NS(=O)(=O)c2ccc(NC(=S)NC(=O)/C=C/c3ccc(F)cc3)cc2)s1
[2]
  Potency: active: 3.16 µM
[9]
  Potency: active: 3.16 µM
[4]
  Potency: inconclusive: 3.77 µM [activator, partial curve, poor fit]
[5]
  outcome: inactive
[15]
  Potency: inactive
